Measurements published in article PMC4336329 (PLoS ONE, 2015).
Hit rate of the full screen: of about 310,000 compounds, about 2,200 (0.71%) showed an effect of 50% or more. The effect is printed as a negative number. Some of the results follow.

Target: human ether-à-go-go-related gene (hERG) potassium channel (human, UniProt Q12809)
Assay: primary screen, population patch clamp on CHO cells stably expressing hERG

human ether-à-go-go-related gene (hERG) potassium channel, sequence (Q12809 whole entry, looked up): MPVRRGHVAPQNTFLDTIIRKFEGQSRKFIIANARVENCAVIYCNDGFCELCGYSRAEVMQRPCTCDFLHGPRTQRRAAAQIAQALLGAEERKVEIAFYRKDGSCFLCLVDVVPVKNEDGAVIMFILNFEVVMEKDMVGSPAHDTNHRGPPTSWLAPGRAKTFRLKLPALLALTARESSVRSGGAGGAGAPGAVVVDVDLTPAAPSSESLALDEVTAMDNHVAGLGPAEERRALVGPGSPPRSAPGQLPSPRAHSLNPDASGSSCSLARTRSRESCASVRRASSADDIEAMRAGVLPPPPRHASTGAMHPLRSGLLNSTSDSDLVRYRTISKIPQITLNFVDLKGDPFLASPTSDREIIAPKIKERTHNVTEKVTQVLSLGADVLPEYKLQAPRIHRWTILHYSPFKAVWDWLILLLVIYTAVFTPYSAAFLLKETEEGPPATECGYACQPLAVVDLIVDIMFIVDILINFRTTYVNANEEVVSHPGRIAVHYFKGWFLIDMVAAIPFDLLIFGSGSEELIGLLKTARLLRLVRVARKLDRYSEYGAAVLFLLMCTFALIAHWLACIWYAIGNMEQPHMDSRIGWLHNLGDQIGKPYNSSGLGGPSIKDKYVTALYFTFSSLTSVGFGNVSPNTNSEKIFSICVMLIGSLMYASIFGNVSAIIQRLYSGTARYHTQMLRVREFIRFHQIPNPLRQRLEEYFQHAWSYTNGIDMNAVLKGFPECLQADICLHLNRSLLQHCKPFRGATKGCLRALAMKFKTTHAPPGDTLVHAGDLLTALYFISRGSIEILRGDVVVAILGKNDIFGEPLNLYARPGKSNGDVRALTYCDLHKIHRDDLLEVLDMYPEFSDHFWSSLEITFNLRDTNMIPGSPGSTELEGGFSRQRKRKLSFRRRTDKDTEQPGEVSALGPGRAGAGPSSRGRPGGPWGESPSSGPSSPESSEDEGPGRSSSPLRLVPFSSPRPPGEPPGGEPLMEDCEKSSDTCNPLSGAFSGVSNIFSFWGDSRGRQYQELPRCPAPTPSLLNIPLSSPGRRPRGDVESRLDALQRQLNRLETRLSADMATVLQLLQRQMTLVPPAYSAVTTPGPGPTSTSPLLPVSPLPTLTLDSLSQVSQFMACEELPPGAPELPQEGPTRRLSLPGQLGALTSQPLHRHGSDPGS

Compound | hERG current change (%, negative = inhibition) at 1uM
COC(=O)c1c(-c2cccnc2)csc1NC(=O)c1cc(C)on1 | 17.5%
Cc1cc(C)cc(CSCC(=O)NN=C2CCCCCC2)c1 | 10.4%
CC(=O)NS(=O)(=O)c1ccc(NS(=O)(=O)c2ccccc2[N+](=O)[O-])cc1 | 11%
Cc1ccc(NC(=S)N(Cc2ccc(Br)cc2)Cc2ccc(C(=O)O)cc2)cc1C | 4.73%
C=CCn1cc(C(=O)NCc2cccnc2)c(=O)c2cc(S(=O)(=O)N(CC)CC)ccc21 | -46.9%
O=[N+]([O-])c1ccc2nc(SCc3ccccc3Cl)sc2c1 | 1.98%
CCCC(=O)c1c(C)c2ccccc2n1C | 11.5%
CCn1c(Cc2cccc3ccccc23)nnc1SCC(=O)Nc1nccs1 | 7.05%
Cc1ccc(NC(=O)Cn2cccc2)c(C)c1 | 1.56%
Cc1ccc(Cl)cc1NC(=O)C1CC1c1ccccc1 (centres unmarked) | 18.2%
O=C1Nc2ccccc2O/C1=C\c1ccccc1Br | 0.525%
CCC(CC)C1=NN2C(=N)/C(=C/c3ccc(OC(=O)c4ccco4)cc3)C(=O)N=C2S1 | 17.3%
CCCCC(CC)CNC(=O)c1[nH]c(C)c(C(C)=O)c1C (centres unmarked) | -1.93%
CC(C)(C)NC(=O)NC(=O)COC(=O)c1c(F)cccc1Cl | 10.9%
CC(C)CCNC(=S)Nc1ccc(F)cc1 | 8.98%
O=C(COC(=O)c1ccc(Br)cc1)NCc1ccc(F)cc1 | -2.07%
CC1CN(C(=O)C(c2ccccc2)c2ccccc2)CC(C)O1 (centres unmarked) | 11.2%
CC1Cc2ccccc2N1Cc1cc(=O)c(OCC(=O)NCCc2ccccc2)co1 (centres unmarked) | 16.7%
COc1ccccc1C(=O)NNC(=O)CCN1C(=O)/C(=C\c2ccccc2)SC1=S | 24.6%
CCNC(=S)N1N=C2c3ccccc3CCC2C1c1ccc(F)cc1 (centres unmarked) | 10.5%
O=C(NCCc1c[nH]c2ccccc12)C(=O)NCC1OCCCN1S(=O)(=O)c1cc(F)ccc1F (centres unmarked) | 13.6%
COC(=O)C(c1cc(OC)c(O)c(OC)c1)(N1CCNC(C)C1)C(F)(F)F (centres unmarked) | 6.05%
O=CN1CCN(C(=O)CC(c2ccccc2)c2cc(Br)ccc2O)CC1 (centres unmarked) | 2.44%

Compound | hERG current change (%, negative = inhibition) at 1uM
CC(C)c1ccc(/C=C/C(=O)NC2=NCCS2)cc1 | 17%
Cc1nnc(SCC(=O)Nc2ccc3c(c2)OCCO3)s1 | 8.1%
CCOc1ccc(N(CC(=O)N2CCOCC2)S(=O)(=O)c2ccc(SC)cc2)cc1 | 11.1%
Cc1ccc2[nH]c(=O)c(COC(=O)C3CCCO3)cc2c1 (centres unmarked) | 8.11%
CCCCn1c(N)c(N(CC(C)C)C(=O)CN(C)S(=O)(=O)c2ccc(C)cc2)c(=O)[nH]c1=O | 4.31%
CCNC(=O)CN(CCc1ccccc1)S(C)(=O)=O | 18.5%
O=C(CSc1nccn1-c1ccc(Cl)cc1)Nc1ccc2c(c1)OCO2 | -7.78%
CC(=O)c1ccc(OCCCC(=O)OCc2nnc(-c3ccc(Cl)cc3)o2)cc1 | 4.87%
Cc1cccc(NC(=S)NC2CC3CCCC(C2)N3Cc2cccs2)c1 (centres unmarked) | -5.94%
CCCC(=O)NC1=C(C#N)C2(CCCCC2)Cc2ccccc21 | 9.37%
O=C(Nc1cccc(-c2cnc3ccccc3n2)c1)C1CC(=O)N(c2ccccc2)C1 (centres unmarked) | 6.7%
COc1ccc(S(=O)(=O)Nc2ccccc2C(F)(F)F)cc1 | 0.27%
CCOC(=O)c1sc2ncc([N+](=O)[O-])cc2c1N | 7.79%
Cc1ccc(C(C)C)c(Oc2cnccn2)c1 | 6.79%
COc1ccc(CNC(=O)CCCn2nc(C)n3c(cc4sccc43)c2=O)cc1 | -7.76%
Cc1cc(SCC(=O)NCCC2=CCCCC2)nc2ccccc12 | 3.55%
Cc1occc1C(=O)N/N=C/c1ccc(-c2cccc([N+](=O)[O-])c2)o1 | 11.2%
CC(C)CN(CC(C)C)S(=O)(=O)N1CCC(C(=O)NCc2ccc(F)cc2)CC1 | 13.6%
Cc1ccc(C2=NOC(C)(c3nnc(-c4ccc(Cl)cc4)o3)C2)cc1 (centres unmarked) | 9.37%
Cc1ccc(C)c(S(=O)(=O)NCc2ccc(C(=O)NCc3ccccn3)cc2)c1 | 8.81%
O=C(NCCS(=O)(=O)N1CCN(c2ccccc2F)CC1)c1cccc(Br)c1 | 10%
CCCS(=O)(=O)N1CCCC(c2nc(-c3ccc(OC)cc3)no2)C1 (centres unmarked) | 1.64%
O=C(Cn1c2[n+](c3ccc(C(F)(F)F)cc31)CCCCC2)c1ccc2c(c1)OCCO2.[Cl-] | 7.8%

Compound | hERG current change (%, negative = inhibition) at 1uM
NS(=O)(=O)c1ccc(CCNC(=O)c2ccc3c(c2)N(Cc2ccccc2)CCS3)cc1 | 10.2%
CC(=O)Nc1cc(NC(=O)C2C3C=CC(C3)C2C(=O)O)ccc1Cl (centres unmarked) | 13.9%
CN(C(=O)COC(=O)c1ccc(S(=O)(=O)N2CCCC2)cc1)c1ccccc1 | 2.35%
CN(C(=O)c1ccc2c(c1)OCO2)C1(C(=O)NC2CCCCC2)CCCCC1 | 5.67%
CC(C)(C)NC(=O)C1CC1(c1ccccc1)c1ccccc1 (centres unmarked) | 20.3%
Cc1nc(Br)c(Br)c(C)c1Br | 12.9%
NS(=O)(=O)c1ccc(CCNC(=O)COC(=O)CCSc2ccc(Cl)cc2)cc1 | -2.4%
O=C(COC(=O)Cc1ccc(Cl)cc1)Nc1cc(S(=O)(=O)N2CCOCC2)ccc1N1CCCC1 | 9.65%
COc1ccc(N(C)S(=O)(=O)c2ccc3c(c2)NC(=O)CC(=O)N3)c(OC)c1 | 11.7%
N#C/C(=C\c1cc([N+](=O)[O-])ccc1Cl)C(N)=O | 12%
CN(C)CCNC(=O)c1cc(Sc2ccc(F)cc2)nc2ccccc12 | -15.7%
CCCNC(=O)C(Cc1ccccc1)NC(=O)c1ccc(-c2ccccc2)cc1 (centres unmarked) | 0.371%
CCOc1cc(CNCCSc2nnnn2C)cc(Br)c1OCc1ccc(F)cc1.Cl | 10.5%
COc1ccc(NC(=O)CSc2nnc(C3CC3)n2N)cc1 | 5.82%
O=C(Cc1ccc2c(c1)OCCO2)Nc1ccc(Cl)c(S(=O)(=O)N2CCOCC2)c1 | 3.77%
O=C(NCc1cccs1)C1CCCN(S(=O)(=O)c2ccc3c(c2)OCO3)C1 (centres unmarked) | -7.74%
Cc1ccc(-c2nc(CS(=O)CC(=O)N3CCN(c4ccc(F)cc4)CC3)c(C)o2)cc1 (centres unmarked) | 6.1%
Cc1cccn2c(=O)c(/C=C(\C#N)C(=O)NC3CCS(=O)(=O)C3)c(N3CCC(C(N)=O)CC3)nc12 (centres unmarked) | 11.4%
Cc1cc(Br)ccc1SCC(=O)OCC(=O)NCc1ccc2c(c1)OCO2 | 7.04%
COc1cc(/C=N/NC(=O)C2CCN(CC(O)COCc3ccccc3)CC2)ccc1O (centres unmarked) | -63.6%
CCN(CC)c1ccc(Nc2nc(-c3cccnc3)cs2)cc1 | 13.9%
CCCn1c(CC)nc([N+](=O)[O-])c1Sc1ccc(C)cc1 | 8.74%
Nc1ccc(C(CC(=O)O)n2cccc2)cc1 (centres unmarked) | 14.2%

Compound | hERG current change (%, negative = inhibition) at 1uM
O=C(Cn1cncn1)c1ccccc1Br | 16.7%
N#Cc1nc(-c2ccccc2F)oc1NCCN1CCOCC1 | 11.2%
C=CCSc1nc2sc3c(c2c(=O)n1-c1ccc(C)cc1)CCN(C)C3 | 16.3%
O=C(NCc1cccnc1)c1c[nH]c2cc3c(cc2c1=O)OCCO3 | 9.5%
COc1cc2c(cc1OC)CN(C(=O)C1CCCN(C(=O)c3ccc(Cl)cc3)C1)CC2 (centres unmarked) | 2.58%
CCC(=NCCC(c1ccccc1)c1ccccc1)c1c(O)[nH]c(=O)[nH]c1=O | -0.349%
O=C(COC(=O)c1ccco1)Nc1ccc2c(c1)OCO2 | 2.4%
CC(=O)c1cc2c(C)c(C(=O)c3ccccc3)oc2cc1O | 3.85%
COc1ccc(-c2nc(N3CCN(C)CC3)sc2-c2ccc(OC)cc2)cc1 | -0.55%
CCn1cc(Br)c(C(=O)Nc2ccc(F)c(Cl)c2)n1 | 0.368%
O=C1NC2(CCCC2)Oc2ccccc21 | 14.2%
COc1ccccc1C1=NOC(Cn2c(NCCOCCO)nc3c2c(=O)n(C)c(=O)n3C)C1 (centres unmarked) | 2.8%
CCC(=O)N(Cc1cc(=O)[nH]c2ccccc12)c1ccccc1C | 0.489%
NS(=O)(=O)c1ccc(CNC(=O)c2cnccn2)cc1 | 12.4%
N#Cc1ccc(NC(=O)C2=COCCO2)cc1 | 6.18%
COC(=O)C1=C(c2cc3ccccc3s2)C[C@@H]2CC[C@H]1N2C(=O)NCc1ccc(F)cc1 | 9.18%
COC(=O)c1ccc(COc2ccc3ccc(=O)oc3c2)o1 | 6.21%
CCSc1nnc(NC(=O)C(C)(C(F)(F)F)C(F)(F)F)s1 | 6.21%
O=S(=O)(c1ccc(SCCOc2cccc(Br)c2)nc1)N1CCCC1 | 14.3%
CC(C)CN(C(=O)Cn1c(=O)cnc2ccccc21)C1CCS(=O)(=O)C1 (centres unmarked) | 13.2%
